# From publication PMC12040169 (PLOS Biology, 2025)
# Where two headings read alike, the source gives them in different places. The list shows a part of the results.
# Tested on: T1, C. trachomatis L2/434/Bu expressing GFP (CTL2-GFP)
# T1 construct: L2/434/Bu GFP intracellular growth in HeLa cells
# Set-up: species or system HeLa; C. trachomatis total inclusion area by high-content imaging, normalised to DMSO
# In short: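 After bulk GFP and resorufin fluorescence reads, cells were fixed, stained with Hoechst and imaged by high-content microscopy. Inclusion area and number (GFP) stood in for chlamydial growth, nuclei count (Hoechst) for host cell viability. MICs were derived as for the bulk readout.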
# [1] = total inclusion area; 28.5 h, 10 µM; inhibitor
Structure (SMILES),% of control remaining [1],"% of control remaining (total inclusion area, 28.5 h, 10 µM, inhibitor)"
O=[N+]([O-])c1ccc(OC(CNS(=O)(=O)c2ccc(Cl)cc2)c2ccccc2)cc1 (stereo not drawn) [CBK262817],81.35,–
COc1ccccc1C(=O)O/N=C1/CCCc2c1ccc(OC)c2[N+](=O)[O-] [CBK263555],63.5913,–
CCOc1cc2c(cc1NC(=O)CN(c1cccc(Cl)c1)S(C)(=O)=O)OC(C)C2 (stereo not drawn) [CBK248179],119.9,–
CCOc1ccc(S(=O)(=O)N2CCN(S(=O)(=O)c3cccc([N+](=O)[O-])c3)CC2)cc1 [CBK266341],116.097,–
COc1ccc2c(C)nc(NC3=NC(c4ccccc4)CC(=O)N3)nc2c1 (stereo not drawn) [CBK270230],137.207,–
CCc1nc2c(OCCOc3ccccc3)cccn2c1N(C)C(=O)COc1ccccc1 [CBK147355],93.4529,–
COC(=O)c1ccc(-c2cc3ccccc3o2)nc1 [CBK149228T],–,104.271
CC(C)c1ccc2oc(-c3ccc(NC(=S)NC(=O)c4cncc(Br)c4)cc3)nc2c1 [CBK264913],106.057,–
CCOC(=O)c1cc(NC(=O)CSc2nc3ccccc3[nH]2)ccc1Cl [CBK266557],108.605,–
O=C(O)c1n[nH]c2c1COc1ccccc1-2 [CBK266356],91.6068,–
O=C(CSc1nc2sc3c(c2c(=O)n1CCc1ccccc1)CCCC3)Nc1ccccc1 [CBK267281],91.4312,–
c1ccc(CN2CCC(NCc3ccco3)C(c3ccccc3)C2)cc1 (stereo not drawn) [CBK286167],91.9892,–
Cc1ccc(-c2nccnc2OCc2ccco2)cc1C [CBK106863],136.946,–
CCC(=O)N1CCC(NCc2ccc(OCC(N)=O)cc2)C(C)C1 (stereo not drawn) [CBK303989],49.2002,–
Nc1ccc(-c2ccc3c(c2)OCCCO3)c2ccccc12 [CBK084325],77.4575,–
O=C(C1CCCCC1)N1CC[C@H](c2nnc(-c3cccnc3)o2)C1 [CBK289412],84.2165,–
CC(C)(C)OC(=O)N1CCN(c2nccnc2OCCO)CC1 [CBK001869],93.045,–
CC(C)C(=O)N1CCCC2(CC1)CN(C)Cc1ccccc1O2 (stereo not drawn) [CBK285132],77.525,–
O=C(c1cncnc1)N1CCC(Cc2ccccc2)CC1 [CBK200212],110.87,–
CCCCN1CCN(S(=O)(=O)c2ccc(Br)cc2)CC1 [CBK144055],65.4509,–
CCn1c(SCC(=O)NC2CC2)nc2ccccc21 [CBK305864],65.9071,–

Structure (SMILES),% of control remaining [1],"% of control remaining (total inclusion area, 28.5 h, 10 µM, inhibitor)"
O=S(=O)(N1CCNCC1)N1CCOCC1 [CBK267467],104.783,–
O=C(NC1CCCCC1)C1CCC1 [CBK011511],59.46,–
Cn1c(=O)c2c(ncn2Cc2ccccc2)n(C)c1=O [CBK133402],38.5059,–
O=C1COc2ccccc2CCCC[C@@H]2CN(C(=O)Cn3ccc(=O)[nH]c3=O)CC[C@H]2N1 [CBK292048],148.088,–
COCC(=O)NC1CCN(CC2(c3ccc(F)cc3)CCCC2)CC1 [CBK285387],79.1019,–
Cc1ccc(-c2nc3ncc(C#N)c(N)n3n2)cc1 [CBK288153],95.2509,–
COc1ccc(CN2CC[C@H]3NC(=O)CNC(=O)C4(C/C=C/C[C@H]3C2)CCN(C(C)=O)CC4)cc1 [CBK292013],92.8929,–
CC(C)CCN1CCC2CN(CCCC(c3ccc(F)cc3)c3ccc(F)cc3)CCN2C1=O (stereo not drawn) [CBK024898C],77.0838,–
COc1cc(-c2nccnc2NCCCO)cc(OC)c1OC [CBK037274],81.4732,–
CN(C1CCCCC1)C1CCN(CCc2ccccc2)CC1 [CBK261918],72.9586,–
O=C(CCCOc1ccc(Cl)cc1Cl)Nc1ccc(O)cc1C(=O)O [CBK131688],122.963,–
CS(=O)(=O)N1CCN(c2ccc(NC(=O)COc3ccc4ccccc4c3)cc2)CC1 [CBK266450],124.938,–
Oc1ccc(-c2cncc(Nc3ccc(Br)c(Cl)c3)n2)cc1 [CBK107806],66.3902,–
O=C(CN1C(=O)c2ccccc2C1=O)Nc1cccc(-c2cnc3ccccc3n2)c1 [CBK268614],88.5351,–
O=c1[nH]c(=S)[nH]c2c1CCC2 [CBK113252],96.4307,–
COc1ccc(S(=O)(=O)N(CC(=O)Nc2cccnc2)c2ccc(F)cc2)cc1 [CBK268445],104.898,–
CN(C)c1ccc(NC(=O)CN2C(=O)[C@H]3CCCN3c3ncccc32)cc1 [CBK286202],150.78,–
COc1ccc(-c2ccc(CN(Cc3ccc4c(c3)OCO4)CC(C)O)cc2)cc1 (stereo not drawn) [CBK286470],77.5912,–
Cc1cc(NS(=O)(=O)c2cccc3cccnc23)n(C)n1 [CBK067242],94.4803,–
CCS(=O)(=O)N1CCN(S(=O)(=O)c2ccccc2[N+](=O)[O-])CC1 [CBK264289],128.113,–
O=C1NC2(CCCCC2)C(=O)N1c1ccc(F)cc1F [CBK281945],99.8757,–

Structure (SMILES),% of control remaining [1],"% of control remaining (total inclusion area, 28.5 h, 10 µM, inhibitor)"
CN1CCC2(CC1)OCc1cc(-c3cccnc3)ccc1O2 [CBK061020],85.6917,–
O=C1CC(c2ccccc2O)CC2=C1C=Nc1ccccc1N2 (stereo not drawn) [CBK270287],61.5726,–
COCCNc1nc(-c2ccccc2CO)ccc1C(=O)NCCNC(C)=O [CBK076548],76.3085,–
O=C(NCc1ccccn1)c1cnn(-c2ccc(Cl)cc2)c1C(F)(F)F [CBK116637T],85.391,–
NC(=O)c1c(NC(=O)COc2ccc(Cl)cc2)sc2c1CCC2 [CBK262163],95.4704,–
FC(F)(F)c1nc2ccccc2nc1OCCN1CCNCC1 [CBK113302],88.3478,–
O=C(Cc1c[nH]c(=O)[nH]c1=O)N1CCCCC1c1nc2cc(F)ccc2[nH]1 (stereo not drawn) [CBK291108],79.1418,–
Cc1cc2nc(COC(=O)N3CCOCC3)[nH]c2cc1C [CBK200144],69.6214,–
CC(=O)N1CCC(C(=O)N2CCC(C(=O)NC(c3ccccn3)c3cccs3)CC2)CC1 (stereo not drawn) [CBK060118],89.1051,–
O=C(O)c1cc2ncc(-c3n[nH]cc3[N+](=O)[O-])cn2n1 [CBK269072],84.6075,–
CC(C)NC(=O)[C@H]1CN2CCC1C[C@@H]2Cn1cc(C2(O)CCCCC2)nn1 (stereo partly drawn) [CBK288732],94.5641,–
O=C(Nc1ccccn1)C1CCCN1c1nc(O)cc(C(F)(F)F)n1 (stereo not drawn) [CBK004254],109.04,–
O=C(Nc1cnc2ccccc2c1)OCCc1cccnc1 [CBK200126],78.0658,–
O=C1CN(C(=O)NCc2ccc(Cl)cc2)CCN1 [CBK155867],109.738,–
COc1ccc(CC(=O)Nc2ccc(S(=O)(=O)NC(C)C)cc2)cc1 [CBK267833],83.5332,–
COc1cccc(C(=O)Nc2cc3c(cc2C(O)c2ccccc2Cl)OCCO3)c1 (stereo not drawn) [CBK268004],90.5958,–
CCOC(=O)c1cnc2ccc(F)cc2c1NCCN(C)C [CBK265751],82.0583,–
CSc1nc(C)cc(OCC(=O)Nc2ccc(Cl)cc2)n1 [CBK267525],109.159,–
CNC(=O)NC(=O)C1CCN(CCc2cccs2)CC1 [CBK034960],97.2203,–
CC1(c2ccco2)NC(=O)N(Cc2ncc(-c3cccs3)o2)C1=O (stereo not drawn) [CBK305398],41.451,–
CN(C)c1ncc(-c2ccc(O)cc2)cc1C(=O)NCc1ccc(F)cc1 [CBK106396],109.752,–

Structure (SMILES),% of control remaining [1],"% of control remaining (total inclusion area, 28.5 h, 10 µM, inhibitor)"
CC(C(=O)N(CCC#N)Cc1cccnc1)n1cnc2ccccc21 (stereo not drawn) [CBK304127],71.9983,–
CCOc1ccccc1Nc1c([N+](=O)[O-])nn(-c2ccc(OC)cc2)[n+]1[O-] [CBK268411],102.564,–
Cc1nc(-c2ccccc2)sc1C(=O)C1=C(O)C(=O)N(CCCN2CCOCC2)C1c1cccs1 (stereo not drawn) [CBK266601],85.6232,–
Cc1cc(C)c(OCCNC(=O)c2ccccc2Sc2ccccc2C#N)c(C)c1 [CBK266048],105.848,–
Fc1cccc(-c2c[nH]nc2C2CCOCC2)c1 [CBK283465],81.352,–
COc1cc(S(=O)(=O)N2CCC(C(N)=O)CC2)ccc1Br [CBK268766],108.58,–
CC(=O)Nc1ccc(CNc2ncccc2OC(F)F)cc1 [CBK306016],70.7224,–
O=c1[nH]ccn1CCNc1ccc(-c2ccccc2Oc2ccccc2)cn1 [CBK037665],114.603,–
C#C[C@H]1C[N@@]2CC[C@H]1C[C@@H]2CNC(=O)Nc1ccc(C(C)=O)cc1 [CBK288755],88.3184,–
CC(=O)N1CCC2(CC1)CC(O)c1cc(C)c(C)cc1O2 (stereo not drawn) [CBK282826],93.3844,–
Cc1ccc(NC(=O)c2ccncc2)c(Br)c1 [CBK058282],116.928,–
COc1ccc(-c2nnc(SCC(=O)O)n2-c2cccc(C(F)(F)F)c2)cc1OC [CBK268347],92.126,–
CSc1cc(C)c(O)c(CO)c1 [CBK020687],67.8052,–
CC(C)n1c(=O)n(CC(=O)NCc2cccs2)c2cccnc21 [CBK283699],53.8499,–
Cn1c(=O)n(C)c2cc(CNC(=O)CC3COCCN3)ccc21 (stereo not drawn) [CBK307252],69.4138,–
Cc1[nH]c2ccc(Cl)cc2c1CC(=O)N(C)CCN(C)C [CBK282700],115.146,–
COc1cc(C(=O)N2CCC3(CC2)CC(=O)c2cc(-c4cccc(C)c4)ccc2O3)cc(OC)c1C [CBK170341],107.406,–
CN1CCC(=NNC(=O)C(=O)NCc2ccco2)CC1 [CBK262341],96.576,–
